Whole data set: some 33,000 sequences, median “E-score (-0.5 to 0.5)” near -0.035, cut for the highest 2% near 0.35. The list shows a part of the results.
molecular target: T1, Pdr3 (UniProt P33200); test: PBM E-score (8-mer binding enrichment) (E-score (-0.5 to 0.5)); higher = stronger / more preferred TF binding; most listed sequences are background and not binding sites; conditions: protein concentration: 200 nM; construct: GST-full length
T1 sequence: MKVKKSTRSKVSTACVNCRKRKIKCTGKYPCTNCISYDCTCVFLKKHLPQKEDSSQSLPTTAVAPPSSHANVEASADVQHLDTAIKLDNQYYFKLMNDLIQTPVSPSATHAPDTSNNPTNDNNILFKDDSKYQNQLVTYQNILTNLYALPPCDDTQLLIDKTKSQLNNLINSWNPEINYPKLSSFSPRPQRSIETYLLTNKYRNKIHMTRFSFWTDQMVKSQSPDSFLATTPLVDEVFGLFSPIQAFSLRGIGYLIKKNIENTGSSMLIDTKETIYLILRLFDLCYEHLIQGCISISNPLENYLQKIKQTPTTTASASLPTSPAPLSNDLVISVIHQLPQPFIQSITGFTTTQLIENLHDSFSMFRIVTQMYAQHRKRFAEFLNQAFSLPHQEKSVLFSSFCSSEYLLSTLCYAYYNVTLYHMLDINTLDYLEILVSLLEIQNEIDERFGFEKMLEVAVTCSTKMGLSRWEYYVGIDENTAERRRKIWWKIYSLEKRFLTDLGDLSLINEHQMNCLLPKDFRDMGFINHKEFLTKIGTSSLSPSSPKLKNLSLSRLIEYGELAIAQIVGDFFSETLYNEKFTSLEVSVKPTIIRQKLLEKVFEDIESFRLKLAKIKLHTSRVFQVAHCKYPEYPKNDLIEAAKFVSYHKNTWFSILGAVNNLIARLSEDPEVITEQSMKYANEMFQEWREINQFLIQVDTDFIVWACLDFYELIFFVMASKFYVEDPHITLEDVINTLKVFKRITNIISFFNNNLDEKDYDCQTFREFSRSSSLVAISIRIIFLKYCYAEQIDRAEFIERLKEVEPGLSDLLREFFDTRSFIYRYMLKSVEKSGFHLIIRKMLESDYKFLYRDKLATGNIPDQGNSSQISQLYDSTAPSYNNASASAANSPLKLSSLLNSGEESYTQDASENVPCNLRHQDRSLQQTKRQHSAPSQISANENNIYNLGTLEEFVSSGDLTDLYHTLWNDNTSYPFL
Procedure, shortened: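 Masliner-normalised scans of fluorescent anti-GST signal were the basis for scoring. That signal came from GST-tagged yeast transcription factors applied at about 100-200 nM to double-stranded universal all-10-mer Agilent arrays on fresh or once-stripped slides. Each ungapped eight-base word, pooled with its reverse complement, received an E-score from the Universal PBM Analysis Suite.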

CTAGAGGA was tested. Which “PBM E-score” value did it give?
The value was -0.269.

GTAGTCAC was tested. Which “PBM E-score” value did it give?
The value was -0.165.

With CCGTTCCC as the sequence, how does the “PBM E-score” value read?
The value was 0.253.

Which “PBM E-score” value does the source give for ACAGCAAT here?
Its value is 0.00827.

GAGCAGCA was tested. Which “PBM E-score” value did it give?
The value was 0.0607.

ATACGATC was tested. Which “PBM E-score” value did it give?
Its value is 0.0493.

With GATCTGCC as the sequence, how does the “PBM E-score” value read?
Its value is 0.0457.

How did the “PBM E-score” value turn out when AAAGAATC was run?
Its value is -0.122.

For GAATGAGA, which “PBM E-score” value is on record?
Its value is 0.18.

How did the “PBM E-score” value turn out when AGCATGGG was run?
Its value is -0.127.

For GAAAAGTA, which “PBM E-score” value is on record?
The value was 0.0139.

AATGTGCA was tested. Which “PBM E-score” value did it give?
The value was -0.0886.

Which “PBM E-score” value does the source give for TTGCGAAA here?
The value was 0.119.

AAGTTTCC was tested. Which “PBM E-score” value did it give?
Its value is 0.223.

With AAGCAAGC as the sequence, how does the “PBM E-score” value read?
The value was 0.019.

With GTAAATAC as the sequence, how does the “PBM E-score” value read?
Its value is -0.0114.

How did the “PBM E-score” value turn out when AGTGAGCG was run?
The value was -0.0777.

With GGAGTGCA as the sequence, how does the “PBM E-score” value read?
Its value is 0.116.

How did the “PBM E-score” value turn out when AGTATTTA was run?
Its value is -0.0356.

Which “PBM E-score” value does the source give for AGCTAGCT here?
Its value is -0.169.

Which “PBM E-score” value does the source give for AACACGGT here?
Its value is 0.0475.

How did the “PBM E-score” value turn out when GAGGAGGC was run?
Its value is -0.207.

CTGAAACA was tested. Which “PBM E-score” value did it give?
Its value is -0.17.

How did the “PBM E-score” value turn out when ATGGTAGA was run?
The value was -0.0968.

How did the “PBM E-score” value turn out when CTTCAAAC was run?
The value was -0.0379.

With AGCTAGTA as the sequence, how does the “PBM E-score” value read?
Its value is 0.0296.

For GCGATGAA, which “PBM E-score” value is on record?
Its value is 0.0515.

For AGAAATAC, which “PBM E-score” value is on record?
Its value is -0.034.

AGGATACG was tested. Which “PBM E-score” value did it give?
The value was -0.206.

With CTTTCTTC as the sequence, how does the “PBM E-score” value read?
The value was 0.00121.

How did the “PBM E-score” value turn out when CGATGTAG was run?
Its value is -0.198.

AACAAATT was tested. Which “PBM E-score” value did it give?
The value was 0.037.

With CTAACGGA as the sequence, how does the “PBM E-score” value read?
Its value is 0.389.

With GGAACATA as the sequence, how does the “PBM E-score” value read?
Its value is 0.253.

With ATCCGTAC as the sequence, how does the “PBM E-score” value read?
The value was 0.248.

Which “PBM E-score” value does the source give for ACATGCAA here?
Its value is -0.0141.

With ACAAGTGG as the sequence, how does the “PBM E-score” value read?
Its value is -0.168.

Which “PBM E-score” value does the source give for CGATGAAC here?
The value was 0.123.

Which “PBM E-score” value does the source give for CCTCGCGA here?
The value was 0.0886.

How did the “PBM E-score” value turn out when AGGCGGTC was run?
The value was -0.0419.

Which “PBM E-score” value does the source give for CCTGTTTA here?
The value was -0.135.

How did the “PBM E-score” value turn out when CACGTGGC was run?
Its value is -0.308.

How did the “PBM E-score” value turn out when CGAGTAAG was run?
Its value is 0.222.

For GGACCACC, which “PBM E-score” value is on record?
The value was 0.151.

GGCCCACA was tested. Which “PBM E-score” value did it give?
The value was 0.091.

Which “PBM E-score” value does the source give for CTTAAACC here?
The value was -0.206.

With GACAATCA as the sequence, how does the “PBM E-score” value read?
The value was -0.052.

With AACGATAC as the sequence, how does the “PBM E-score” value read?
The value was -0.192.

Which “PBM E-score” value does the source give for GCATCGCA here?
The value was -0.106.

For AATTAGAT, which “PBM E-score” value is on record?
Its value is 0.0511.

Which “PBM E-score” value does the source give for GCCGAAAC here?
The value was 0.0955.

Which “PBM E-score” value does the source give for GATAGTCC here?
Its value is 0.0432.

With CCACTCCG as the sequence, how does the “PBM E-score” value read?
The value was 0.235.

For GTATTGGA, which “PBM E-score” value is on record?
Its value is -0.223.

How did the “PBM E-score” value turn out when AAGGTTGG was run?
The value was -0.122.

With GATTGAGA as the sequence, how does the “PBM E-score” value read?
The value was 0.151.

For CTTAGTCA, which “PBM E-score” value is on record?
Its value is -0.227.

AAGCTACG was tested. Which “PBM E-score” value did it give?
The value was -0.235.

ACCGGATC was tested. Which “PBM E-score” value did it give?
The value was 0.34.

With ATATTCAA as the sequence, how does the “PBM E-score” value read?
The value was 0.12.

Which “PBM E-score” value does the source give for GGACAAGA here?
Its value is 0.061.

With CCTAAGAA as the sequence, how does the “PBM E-score” value read?
The value was -0.123.

How did the “PBM E-score” value turn out when GTCCCCCA was run?
Its value is -0.19.

GCAATGCC was tested. Which “PBM E-score” value did it give?
The value was 0.15.

With CCACGTAA as the sequence, how does the “PBM E-score” value read?
Its value is -0.0761.

For ACTGACAT, which “PBM E-score” value is on record?
Its value is -0.0821.

CCTCTAAC was tested. Which “PBM E-score” value did it give?
The value was -0.199.

How did the “PBM E-score” value turn out when GGCTAAAA was run?
Its value is -0.166.

AGACGAGA was tested. Which “PBM E-score” value did it give?
The value was -0.0506.

For ATAGATCC, which “PBM E-score” value is on record?
Its value is 0.169.

For ATTTTACG, which “PBM E-score” value is on record?
Its value is 0.139.

With CGAATGAG as the sequence, how does the “PBM E-score” value read?
Its value is 0.138.

CAGTAATC was tested. Which “PBM E-score” value did it give?
Its value is -0.139.

AGACAAAG was tested. Which “PBM E-score” value did it give?
The value was -0.176.

How did the “PBM E-score” value turn out when AACTTTAT was run?
Its value is -0.0312.

How did the “PBM E-score” value turn out when TAATAACA was run?
The value was 0.0148.

Which “PBM E-score” value does the source give for GCCATGTA here?
Its value is -0.0585.

Which “PBM E-score” value does the source give for ACGATCCA here?
Its value is -0.0267.

For CTGTAGCC, which “PBM E-score” value is on record?
Its value is -0.232.

With GGGCAGGA as the sequence, how does the “PBM E-score” value read?
The value was -0.00058.

How did the “PBM E-score” value turn out when AAGCTTCC was run?
The value was -0.0761.

With ATTATGTC as the sequence, how does the “PBM E-score” value read?
The value was -0.11.

For TGTAGCAA, which “PBM E-score” value is on record?
Its value is 0.127.

Which “PBM E-score” value does the source give for GCTCACCA here?
Its value is -0.243.

Which “PBM E-score” value does the source give for AATTACCA here?
Its value is 0.025.

With GCCCATAA as the sequence, how does the “PBM E-score” value read?
The value was -0.0973.

Which “PBM E-score” value does the source give for CGCTTACA here?
Its value is -0.00791.

GAATCGAC was tested. Which “PBM E-score” value did it give?
Its value is 0.218.

With CTAACCTA as the sequence, how does the “PBM E-score” value read?
Its value is -0.078.

GAGACTGA was tested. Which “PBM E-score” value did it give?
The value was 0.00553.

With GGGACGTA as the sequence, how does the “PBM E-score” value read?
Its value is -0.0312.

AAAAGTGT was tested. Which “PBM E-score” value did it give?
The value was -0.214.

With GCTCCCCA as the sequence, how does the “PBM E-score” value read?
Its value is -0.329.

With CTTGGGCA as the sequence, how does the “PBM E-score” value read?
Its value is 0.0396.

With ACCCTGCA as the sequence, how does the “PBM E-score” value read?
The value was 0.0556.

With CAACATGG as the sequence, how does the “PBM E-score” value read?
The value was -0.136.

Which “PBM E-score” value does the source give for ATGGCACG here?
Its value is 0.117.

Which “PBM E-score” value does the source give for AACGATTA here?
The value was -0.047.

How did the “PBM E-score” value turn out when ATCGGCGA was run?
Its value is 0.114.

For ATACGTAT, which “PBM E-score” value is on record?
Its value is 0.161.

How did the “PBM E-score” value turn out when ATAGATTC was run?
Its value is -0.0406.

ACCGCCGT was tested. Which “PBM E-score” value did it give?
Its value is 0.114.

GCGTAGCA was tested. Which “PBM E-score” value did it give?
Its value is 0.0185.

With TAACCCTA as the sequence, how does the “PBM E-score” value read?
Its value is -0.207.

CTAAGTAG was tested. Which “PBM E-score” value did it give?
Its value is -0.202.

How did the “PBM E-score” value turn out when AGTACCGG was run?
The value was 0.118.

How did the “PBM E-score” value turn out when AGAATACC was run?
The value was 0.0677.

With GACCGGGC as the sequence, how does the “PBM E-score” value read?
Its value is 0.0834.

For CGAGACTC, which “PBM E-score” value is on record?
The value was -0.0603.

With GAGGTCGC as the sequence, how does the “PBM E-score” value read?
The value was 0.1.

From the supplement of paper PMC3334620
